This is an account of results in US9610259B2, “Compositions and methods for treating an autism spectrum disorder” (Children's Hospital Medical Center, priority 2014, dated 2017).

The conditions of series [1]: cited from earlier work.
The subject of series [2] is patients with ASD / Autistic Disorder.
For series [3] the following is noted: cited from earlier work. This is another data set of the same source.
The conditions of series [4]: cited from earlier work. This is another data set of the same source.
Series [5] has as its system patients with ASD / Autistic Disorder. Kind of series: Tolerability, adverse effects and vital signs after intranasal ketamine.
For series [6], the system named is patient with ASD. Kind of series: ADOS, Y-BOCS and EAT-26 during intranasal ketamine treatment, Example 3.
In series [7] the test system is patient with ASD. Kind of series: Depression rating scales (MADRS, BDI) and reported mood during intranasal ketamine treatment, Example 3.
Series [8] relates to BTBR mice (autism model). Kind of series: 3 Chamber Social Test. The format is in vivo, mouse. The settings on record: 10 mg/kg once weekly for 5 weeks. Here is the method: Female B6 (WT; control) and BTBR mice (autism model) were mated with males of their respective strains. Pups from these mating strategy were used as subjects. At postnatal day 60 mice were either dosed with a saline vehicle (VEH) or 10 mg/kg racemic ketamine HCL (10 KET) once weekly for 5 weeks. On the 5th week mice were tested in the 3 Chamber Social Test 24 h following dosing. Mice were acclimated to the center chamber for 5 minutes and then allowed to explore all three empty chambers for 10 minutes. The test phase followed immediately in which a stranger mouse contained inside a metal bar chamber (stranger) was placed in one side chamber and an empty chamber (novel object) was placed in the other outside chamber. The VEH exposed BTBR mice avoided the chamber containing the stranger mouse which is a behavior typically reported in the literature and reminiscent of autism like social avoidance or disinterest.

The conditions of series [9]: see EP 1567145 B1; cited from earlier work.
Series [10] deals with persons with ASD. The settings on record: in vivo; cited from earlier work.
[11] abbreviates: IN 30-120 mg per dose, 12 youth ages 6 to 19 years, open-label.

Counter-ions that a name gives are not always drawn. Like-named read-outs stand apart in the source and are kept apart here.

As to `CNC1(c2ccccc2Cl)CCCCC1=O` (stereo not shown) [ketamine, 2-(2-chlorophenyl)-2-(methylamino)-cyclohexanone], in series [1] (setting [11]), the “duration of dissociative symptoms after dosing” value is “less than 60 minutes” and the “symptoms of bipolar disorder” value was “improved”. For the same compound, in [1] (IV 0.5 mg/kg, depression), the “time to resolution of transient increase in dissociative symptoms” value is “less than 90 minutes”. Further, in series [1] (IV 0.5 mg/kg), the depression symptoms entry is listed as “rapidly improve”. The “Fixation Duration on Eyes, post-dose” value in series [2] (Example 4, person, 40 mg IN weekly, pre-dose 4.09, FIG. 2) stood at 8.33 s. In addition, the “Fixation Duration on Face, post-dose” value in [2] (Example 4, person, 40 mg IN weekly, pre-dose 14.01, FIG. 3) was found to be 21.7 s. The “Fixation Duration on Eyes, post-dose” value in [2] (Example 5, person, initial 20 mg IN, 1 hour post-dose, pre-dose 2.92, FIG. 4) came out at 12.79 s. Moreover, the “incidence of airway or respiratory complications” value in [3] (2009 meta-analysis of 8,282 pediatric ketamine sedation cases) is 3.9%. In addition, in [3] (case series in 17 mentally handicapped adults undergoing sedation), the “incidents of emergence reaction” value is on record as “no incidents”. Besides, the “outcome of unintentional overdose” value in series [3] (children, 5 to 100 times the intended dose) is “prolonged but complete recovery”. Moreover, the “incidence of emergence reaction” value in series [3] (meta-analysis of ketamine use in children) is on record as 1.4%. Further, the “plasma levels required for ketamine induced anesthesia” value in series [4] (adults) was 0.6 to 2.0 µg/mL. In addition, the “mean peak plasma concentration” value in series [4] (children ages 2-9 years, 10-30 kg, 3 mg/kg IN, also printed 0.496 μg/ml) was 496 ng/mL. Further, the “plasma levels required for ketamine induced anesthesia” value in series [4] (children) is 0.8 to 4.0 µg/mL. In series [5] (Example 3 patient, IN 20-40 mg), the “duration of mild headaches following each dose” value lay in the range of 6 to 10 h; the “duration of transient sedation, dizziness, numbness of limbs and face, blurred vision post-dose” value is given as “approximately 90 minutes”. Also, the “blood pressure, heart rate and temperature” value in series [5] (Example 3 patient, monitored post dose) is “stable”. The tolerability entry in [5] (Example 4, person, 20 mg then 40 mg weekly IN) was “minor sedation, but otherwise tolerated ketamine well”. Further, the ADOS score result in series [6] (repeat ADOS at six weeks) was “no change”. In [6] (throughout treatment), the “Y-BOCS or EAT-26 scores” value is listed as “little change”. In [7] (person with ASD, IN ketamine 20-60 mg, Day 43, baseline BDI 35), this compound returned a BDI score of 5. Besides, the MADRS score in series [7] (person with ASD, IN ketamine 20-60 mg, Day 43, baseline MADRS 44) is 15. The “return to baseline mood post dose” value in [7] (post doses on days 1, 7 and 14 (20-40 mg IN)) fell in the range of 3 to 4 days. Further, in series [7] (within 24 hours following each IN dose (20 or 40 mg)), the “BDI and MADRS scores following each dose” value is recorded as “dramatically improved”.

Regarding `CNC1(c2ccccc2Cl)CCCCC1=O` (racemic) [racemic ketamine HCL], the “incidence of emergence reactions” value in series [3] (prescribing information) was 12%. Moreover, in [8] (BTBR mice, tested 24 h following dosing), the “preference for the stranger mouse” value is listed as “increased preference”. For the same compound, the motor behavior result in [8] (WT (B6) and BTBR mice) was “did not alter”.

For `CN[C@]1(c2ccccc2Cl)CCCCC1=O` [S-ketamine], the “potency relative to R-ketamine” value in series [9] is given as “two to three”.

`NC12CC3CC(CC(C3)C1)C2` [amantadine]: the “outcome of placebo-controlled trials in ASD” value in series [10] is on record as “negative”.

As for `CC12CC3CC(C)(C1)CC(N)(C3)C2` [memantine], the “behavioural adverse effect in ASD” value in series [10] is “irritability promoting effects”.

In the case of `N[C@@H]1CONC1=O` [DCS, d-cycloserine], the “outcome of placebo-controlled trials in ASD” value in series [10] was “negative”.
